Each structure is given as a SMILES string. Where “and” joins values, the source holds several entries; their conditions need not be identical. Equal entries are not always repeated. Some of the results follow. Further columns of the screen follow, without active or inactive calls.

Common to all, as to assay: Primary Screen for Target Class Profiling of Small Molecule Inhibitors of Methyltransferases
In test [1] the target is Glycine N-methyltransferase (Homo sapiens) (UniProt Q14749). The settings on record: purified enzyme, MTase-Glo SAH luminescence; measured here: GNMT inhibition; at 40 µM; stronger effect = lower value. A digest of the protocol: (§1)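 Each enzyme was reacted with SAM and its substrate, with compounds tested once at 40 uM; SAH formed was read by MTase-Glo luminescence.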
The target of test [2] is Guanidinoacetate N-methyltransferase (Homo sapiens) (UniProt Q14353). The settings on record: purified enzyme, MTase-Glo SAH luminescence; measured here: GAMT inhibition; at 40 µM; stronger effect = lower value. The method in brief:
as §1

In test [3] the target is Histamine N-methyltransferase (Homo sapiens) (UniProt P50135). As to conditions: purified enzyme, MTase-Glo SAH luminescence; measured here: HNMT inhibition; at 40 µM; stronger effect = lower value. The method in brief:
as §1

Test [4] deals with Nicotinamide N-methyltransferase (Homo sapiens) (UniProt P40261). The settings on record: purified enzyme, MTase-Glo SAH luminescence; measured here: NNMT inhibition; at 40 µM; stronger effect = lower value. A digest of the protocol:
as §1

Test [5] concerns the target Phenylethanolamine N-methyltransferase (Homo sapiens) (UniProt P11086). The settings on record: purified enzyme, MTase-Glo SAH luminescence; measured here: PNMT inhibition; at 40 µM; stronger effect = lower value. A digest of the protocol:
as §1
% is set by controls: 0 for no effect and ±100 for the full control effect.

As for `O=C(Nc1ccccc1Br)N1Cc2ccccc2-n2cccc2C1c1cccs1` (stereo not given), the activity change, negative = inhibition in test [1] was found to be 9.18%; in test [2], 3.63%; in test [3], 5.34%; in test [4], 1.45%; in test [5], 9.77%.

`O=C(O)C1=NOC2CN(CC3CCCCC3)CC12` (stereo not given): the activity change, negative = inhibition in test [1] is 2.26%; in test [2], -3.32%; in test [3], 2.32%; in test [4], 1.64%; in test [5], 2.82%.

For the compound `C[C@H](N)Cc1cccc(C(F)(F)F)c1`, the activity change, negative = inhibition in test [1] is 4.43%; in test [2] it was 8.22%; in test [3], 2.9%; in test [4] it was -3.56%; in test [5] it was -18.5%.

As for `COc1ccc(OC)c(NC(=O)N2Cc3ccccc3-n3cccc3C2c2ccc(C)cc2)c1` (stereo not given), the activity change, negative = inhibition in test [1] was found to be 8.2%; in test [2], 0%; in test [3], 8.46%; in test [4], 7.22%; in test [5], 4.18%.

With `COc1ccc(OC)c(NC(=O)N2Cc3ccccc3-n3cccc3C2C)c1` (stereo not given), the activity change, negative = inhibition is 8.41% in test [1]; 3.76% in test [2]; 2.04% in test [3]; -1.76% in test [4]; 7.43% in test [5].

For the compound `CCOCCCNC(=O)N1Cc2ccccc2-n2cccc2C1c1cccs1` (stereo not given), the activity change, negative = inhibition in test [1] is 12%; in test [2], 7.08%; in test [3] it was -3.28%; in test [4], -12.9%; in test [5], -1.77%.

`CN1CCCC1CCOC(c1cc2nccc(C(=O)O)c2[nH]1)c1ccccc1Cl` (stereo not given): the activity change, negative = inhibition in test [1] was 2.36%; in test [2], 6.3%; in test [3], 3.27%; in test [4], -8.71%; in test [5], 1.33%.

Consider `COc1cc2c(c(OC)c1OC)-c1ccc(SC)c(=O)cc1[C@@H](NC(C)=O)CC2`, for which the activity change, negative = inhibition in test [1] was -0.287%; in test [2], -3.14%; in test [3], 6.94%; in test [4], -12.6%; in test [5], -0.365%.

Consider `CC(NC(C)(C)C)C(=O)c1cccc(Cl)c1` (stereo not given), for which the activity change, negative = inhibition in test [1] is -2.27% and 11.1%; in test [2], 4.13% and 14.4%; in test [3], 8.79% and 11.6%; in test [4], -14.5% and -5.15%; in test [5], 0.966% and 1.35%.

Regarding `COc1cc(OC)c(NC(=O)N2Cc3ccccc3-n3cccc3C2C)cc1Cl` (stereo not given), the activity change, negative = inhibition in test [1] was 6.5%; in test [2] it was 2.14%; in test [3], -3.33%; in test [4] it was -4.41%; in test [5] it was 0.601%.

Consider `COc1ccc(C2c3cccn3-c3ccccc3CN2C(=O)Nc2cc(Cl)ccc2OC)cc1` (stereo not given), for which the activity change, negative = inhibition was 13.1% in test [1]; 3.88% in test [2]; 2.9% in test [3]; 7.87% in test [4]; 10.7% in test [5].

Take `CN1CCc2cc(O)cc3c2[C@H]1Cc1ccc(O)c(O)c1-3`: the activity change, negative = inhibition in test [1] was -91.9%; in test [2], 2.76%; in test [3] it was -8.33%; in test [4] it was -6.84%; in test [5], -0.873%.

With `COc1ccc(NC(=O)N2Cc3ccccc3-n3cccc3C2c2ccc(SC)cc2)c(OC)c1` (stereo not given), the activity change, negative = inhibition in test [1] came out at 0.899%; in test [2], 0%; in test [3], 7.55%; in test [4], 2.25%; in test [5], 6.68%.

For the compound `CCOC(=O)c1cccc(NC(=O)N2Cc3ccccc3-n3cccc3C2C)c1` (stereo not given), the activity change, negative = inhibition is 9.65% in test [1]; 4.41% in test [2]; 3.38% in test [3]; -2.1% in test [4]; 7.78% in test [5].

As for `Cc1cc(NC(=O)N2Cc3ccccc3-n3cccc3C2c2cccs2)ccc1Br` (stereo not given), the activity change, negative = inhibition in test [1] was 3.18%; in test [2], 2.54%; in test [3] it was -4.46%; in test [4] it was -4.7%; in test [5], 1.21%.

With `CCOc1ccccc1NC(=O)N1Cc2ccccc2-n2cccc2C1c1ccc(SC)cc1` (stereo not given), the activity change, negative = inhibition in test [1] is 1.32%; in test [2], 4.3%; in test [3], -0.808%; in test [4], -0.565%; in test [5] it was 5.13%.

For `CCc1ccc(NC(=O)N2Cc3ccccc3-n3cccc3C2c2ccc(SC)cc2)cc1` (stereo not given), the activity change, negative = inhibition in test [1] is -1.29%; in test [2], 0%; in test [3], -1.15%; in test [4], 0.715%; in test [5] it was 3.06%.

`C[C@@H]1Cc2c(Cl)cc(C(=O)N[C@@H](Cc3ccccc3)C(=O)O)c(O)c2C(=O)O1`: the activity change, negative = inhibition in test [1] was -0.612%; in test [2], 0.029%; in test [3], 2.83%; in test [4], -13.8%; in test [5] it was 1.14%.

Turning to `CC(=O)O[C@H]1C[C@]2(O)[C@@H]3CC[C@@H]4C[C@@H](O)CC[C@]4(C)[C@H]3CC[C@]2(C)[C@H]1c1ccc(=O)oc1`, the activity change, negative = inhibition in test [1] was 1.17%; in test [2], 5.3%; in test [3] it was 2.48%; in test [4] it was -10.1%; in test [5], -1.89%.

With `NC(CP(=O)(O)O)C(=O)O` (stereo not given), the activity change, negative = inhibition in test [1] is -2.4%; in test [2], 6.08%; in test [3], -0.274%; in test [4], -1.55%; in test [5], 10%.

In the case of `COc1ccc(C2c3cccn3-c3ccccc3CN2C(=O)Nc2ccccc2Cl)cc1OC` (stereo not given), the activity change, negative = inhibition in test [1] stood at 8.2%; in test [2] it was 0.466%; in test [3], 2.43%; in test [4], 2.38%; in test [5], 6.24%.

With `Cn1c(CCCC(=O)O)nc2cc(N(CCCl)CCCl)ccc21`, the activity change, negative = inhibition in test [1] is -14.6%; in test [2] it was 1.06%; in test [3], -2.13%; in test [4], -8.18%; in test [5], 1.16%.

For the compound `O=C(Nc1ccc2c(c1)OCCO2)N1Cc2ccccc2-n2cccc2C1c1ccc(Cl)cc1` (stereo not given), the activity change, negative = inhibition in test [1] came out at 2.39%; in test [2], 0%; in test [3], 2.83%; in test [4], 5.37%; in test [5], 6.74%.

With `Nc1ncnc2c1ncn2[C@@H]1O[C@@H]2COP(O)(=S)O[C@H]2[C@H]1O` (stereo not given in full), the activity change, negative = inhibition is 4.59% in test [1]; 7.74% in test [2]; 12.9% in test [3]; -3.1% in test [4]; 7.34% in test [5].

For `CCCNC(=O)N1Cc2ccccc2-n2cccc2C1c1cccc(C)c1` (stereo not given), the activity change, negative = inhibition in test [1] was 6.47%; in test [2] it was 0%; in test [3], 1.38%; in test [4], -1.1%; in test [5], 6.43%.

On to `COc1cc(C(=O)O[C@H]2[C@@H]3C=CO[C@@H](O[C@@H]4O[C@H](CO)[C@@H](O)[C@H](O)[C@H]4O)[C@@H]3[C@@]3(CO)O[C@@H]23)ccc1O`, for which the activity change, negative = inhibition in test [1] is -1.02%; in test [2], -5.85%; in test [3], -2.57%; in test [4], -14.5%; in test [5], -0.497%.

Regarding `CCOc1ccc(C2c3cccn3-c3ccccc3CN2C(=O)Nc2cccc(Cl)c2C)cc1` (stereo not given), the activity change, negative = inhibition in test [1] was -3.02%; in test [2] it was -3.83%; in test [3], 4.44%; in test [4], 0.933%; in test [5], 1.67%.

For the compound `O=C(N[C@@H](COc1ccc2[nH]c(=O)[nH]c2c1)c1ccccc1)c1cccn(Cc2ccc(F)c(F)c2)c1=O`, the activity change, negative = inhibition in test [1] was -0.437%; in test [2], -1.34%; in test [3], 8.54%; in test [4], -37.8%; in test [5] it was -7.47%.

For the compound `CC1c2cccn2-c2ccccc2CN1C(=O)NCc1ccc(F)cc1` (stereo not given), the activity change, negative = inhibition in test [1] is 2.46%; in test [2], 4.99%; in test [3], -6.89%; in test [4], -14.6%; in test [5], 3.03%.

For the compound `CS(=O)(=O)N1C[C@H]2CCN(Cc3ccc[nH]3)C[C@H]21`, the activity change, negative = inhibition in test [1] was -17.3%; in test [2], -13%; in test [3] it was -4.85%; in test [4], -18.3%; in test [5] it was -28.1%.

Values taken from PubChem BioAssay AID1745853 (National Center for Advancing Translational Sciences (NCATS), 2022).
